# The supplement of paper PMC3334620
# Whole data set: some 33,000 sequences, median “E-score (-0.5 to 0.5)” near -0.054, cut for the highest 2% near 0.35. Some of the results follow.
# Target: T1, Stb5 (UniProt P38699)
# T1 sequence: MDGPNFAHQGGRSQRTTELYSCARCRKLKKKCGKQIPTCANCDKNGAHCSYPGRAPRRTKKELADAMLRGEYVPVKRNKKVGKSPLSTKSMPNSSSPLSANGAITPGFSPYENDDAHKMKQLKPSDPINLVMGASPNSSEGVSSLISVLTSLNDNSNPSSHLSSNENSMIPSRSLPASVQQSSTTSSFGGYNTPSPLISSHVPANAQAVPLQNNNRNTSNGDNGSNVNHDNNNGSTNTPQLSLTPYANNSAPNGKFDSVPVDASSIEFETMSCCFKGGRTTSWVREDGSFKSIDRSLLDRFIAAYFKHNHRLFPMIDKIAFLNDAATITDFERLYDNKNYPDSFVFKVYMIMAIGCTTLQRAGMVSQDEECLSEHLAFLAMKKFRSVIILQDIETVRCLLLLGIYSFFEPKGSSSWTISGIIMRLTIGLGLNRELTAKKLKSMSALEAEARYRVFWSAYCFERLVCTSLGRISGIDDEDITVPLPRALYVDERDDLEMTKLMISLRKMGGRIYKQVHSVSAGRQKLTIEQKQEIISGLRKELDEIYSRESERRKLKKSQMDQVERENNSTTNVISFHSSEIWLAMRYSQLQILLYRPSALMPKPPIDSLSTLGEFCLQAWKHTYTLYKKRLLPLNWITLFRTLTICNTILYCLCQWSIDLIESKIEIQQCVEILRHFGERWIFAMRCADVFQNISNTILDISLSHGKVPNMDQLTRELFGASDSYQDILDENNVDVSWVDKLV
# Experiment: PBM E-score (8-mer binding enrichment) (E-score (-0.5 to 0.5)); higher = stronger / more preferred TF binding; most listed sequences are background and not binding sites
# Details: protein concentration: 200 nM; construct: GST-full length
# Method in brief: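 Yeast transcription factors, full-length or as DNA-binding domains, were expressed with a GST tag using PURExpress in vitro transcription/translation. At about 100-200 nM they were applied to universal all-10-mer Agilent arrays, double-stranded by primer extension on fresh or once-stripped slides. Fluorescent anti-GST detected bound protein, and masliner normalised the scans. E-scores for ungapped eight-base words, pooled with reverse complements, came from the Universal PBM Analysis Suite.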
row,Sequence,PBM E-score
1,AAAGAATC,0.00308
2,ACAGCAAT,-0.0131
3,GAGCAGCA,-0.183
4,CCGTTCCC,0.251
5,ATACGATC,-0.135
6,AGCATGGG,-0.0965
7,GAATGAGA,-0.00577
8,AATGTGCA,-0.241
9,AGTGAGCG,-0.114
10,GTAAATAC,0.22
11,AAGCAAGC,-0.113
12,GGAGTGCA,0.0406
13,TTGCGAAA,0.0793
14,AAGTTTCC,-0.0966
15,GAAAAGTA,-0.244
16,CCTTATGA,-0.0215
17,CCTTTCAG,-0.0491
18,GGAGCGCA,-0.165
19,CAAGTTAC,0.0162
20,ATTTTACC,0.223
21,CGCTTCCA,-0.0991
22,GTTTGGAA,-0.197
23,ATAGGCGG,0.27
24,GGACAGAC,-0.0867
25,CGCGACAC,0.24

row,Sequence,PBM E-score
1,AGTGCGTA,-0.137
2,ACCACGTA,-0.247
3,GAAGGATC,-0.163
4,CGAGGAAG,-0.0975
5,CAATACCG,0.332
6,CGTGAGCA,0.0927
7,GACAGTGC,-0.134
8,ACTTCTCA,-0.308
9,CGTGTCAA,0.0525
10,CAGTCCCG,0.192
11,GCGATTAA,0.143
12,AGTAGCTG,-0.158
13,AACTATAT,0.186
14,GAGGCGTA,-0.0698
15,CGTGCTAG,-0.248
16,ATCATCTG,-0.0678
17,ACCATTTG,-0.0611
18,AAGATTTC,-0.115
19,TCAGACCA,-0.254
20,AGCTTGAA,-0.237
21,GAACTAAA,0.019
22,CGACGGAC,0.368
23,CCATTGGA,-0.238
24,GATGTGTA,-0.208
25,ATCAAGCG,0.0918

row,Sequence,PBM E-score
1,CATTTCGC,-0.00541
2,CTTTGCGC,-0.00385
3,AAAATGAA,-0.0668
4,GCGCATTA,0.00556
5,AGATCTTA,-0.18
6,CTTGCGCA,-0.0783
7,GTTACTCA,-0.0863
8,CGGGATGC,-0.0328
9,CGTGATGC,0.128
10,CCGACGGC,0.372
11,CCTTAACG,0.136
12,CACCACCA,-0.147
13,AAATGCGG,0.212
14,GTTTGAAA,-0.0201
15,ACAATGTG,-0.258
16,GCCACATA,0.00329
17,CGCTTACC,0.0132
18,ACATGCGT,-0.123
19,CGAAGTGC,0.0417
20,GTATTCCA,-0.0568
21,TTACTAAA,-0.0138
22,CCTAGGCG,-0.235
23,CATGATTC,-0.129
24,ACACAACC,-0.136
25,GTCAGAAA,-0.222

row,Sequence,PBM E-score
1,AATAAAAC,0.114
2,GGCAAGTA,0.0287
3,ATAATGGA,0.0837
4,CGTGCAGC,-0.044
5,ACCCATTC,-0.127
6,GGGGGCCA,-0.0999
7,ATTACTAA,0.00433
8,ACATGCTG,-0.199
9,ATACTATG,-0.0158
10,AATAAGCG,0.026
11,CCCGTAGC,0.0927
12,CTACACAC,-0.15
13,AATTCACA,-0.17
14,CAACGTTA,0.0299
15,GACGGGGC,0.309
16,AGCTCCAA,-0.313
17,GGCCTCGA,-0.0639
18,CCTGGCAA,-0.253
19,GTCACTAA,-0.073
20,ATTACCGC,0.419
21,TCAAGGGA,0.0305
22,AGGCGCGA,-0.00867
23,ATCAACCC,-0.00187
24,GCTTCCCC,-0.0123
25,TAGTCTCA,-0.146

row,Sequence,PBM E-score
1,AAGGGTGC,-0.195
2,ACCCCACA,-0.121
3,CATTTCCG,0.183
4,ACCCAGAG,-0.109
5,CCCGCCAG,0.318
6,CTACGACA,-0.0655
7,CGTTAGGC,0.147
8,CAAAAAGA,-0.115
9,AACCTACT,0.00837
10,CTCGGAGC,0.0927
11,CATTTGGA,0.0571
12,AGAGTTCA,-0.277
13,GACCCGTC,0.203
14,CGGGGGGA,0.181
15,AGGGCTGG,-0.0581
16,AACATATA,0.0905
17,CTAAGTTC,-0.148
18,GGAGATCC,0.0751
19,TTGCAAAA,0.0291
20,AATGTCTA,-0.258
21,CACCGACC,0.418
22,AGACCGCA,0.275
23,ACTGCGAT,-0.12
24,AATGTTAA,-0.0426
25,CAAGCAAG,-0.086

row,Sequence,PBM E-score
1,GCAGTTTA,0.101
2,CTGAGGGA,-0.213
3,GTACGCAA,-0.167
4,CCCAAGTA,-0.169
5,CCCGGCAC,0.165
6,AATCAAGG,0.0379
7,CTAGCAGA,-0.129
8,GGGACCTA,0.138
9,AGAGTCTA,-0.327
10,CGCACACG,0.0188
11,GTCAAGAA,-0.158
12,ATTGTGAC,-0.131
13,ATTTAAAA,0.133
14,CAATAATA,0.0756
15,CCCAAACC,-0.00895
16,CAGCCTTA,-0.226
17,AAGTGGAA,-0.0939
18,CGAACCTC,-0.0918
19,ACTGGGCC,-0.0838
20,AACGGTGC,0.332
21,AGCACCGC,0.461
22,AGCTGAAG,-0.336
23,TAGAAGCA,-0.248
24,AGGTGTTG,-0.0336
25,TCATTCAA,-0.225

row,Sequence,PBM E-score
1,GTGTCGGA,0.357
2,GGAGTGAA,0.00649
3,ACCGCACC,0.323
4,AACCATAA,-0.0356
5,CTGGCCGA,0.0454
6,GTACTGAA,0.00414
7,ACAATGGC,-0.237
8,AGACTTGC,-0.146
9,CGGATCCC,0.134
10,AGCATTTA,-0.184
11,ACGCGTCC,-0.14
12,CTGGCAGC,-0.126
13,GATAGGCC,0.116
14,GATTACCC,0.183
15,CAAAATCG,-0.0979
16,ACGTCCCG,0.111
17,CCTAAGGC,-0.136
18,GACCCGAA,0.034
19,CAATCATC,-0.108
20,GCGAGACA,-0.163
21,AGTTCTGG,-0.249
22,CAATCATG,-0.102
